Experiment [1] relates to IL-8 secretion from cystic fibrosis epithelial cell line IB-3. Conditions: running text b63.
The subject of experiment [2] is IL-8 secretion from CF lung epithelial cells. Conditions: cited from earlier work.

We go through three molecules from patent US20060234955A1, “Cardiac glycosides to treat cystic fibrosis and other il-8 dependent disorders” (priority 2002, published 2006).

With `CO[C@H]1C[C@H](O[C@H]2CC[C@@]3(C)[C@H](CC[C@@H]4[C@@H]3CC[C@]3(C)[C@@H](C5=CC(=O)OC5)[C@@H](OC(C)=O)C[C@]43O)C2)O[C@@H](C)[C@@H]1O` [Compound I], the “concentration at which spontaneous IL-8 secretion from CF lung epithelial cells is suppressed” value in experiment [1] was in the range of 1 to 2 nM. With `C=CCn1c(=O)c2[nH]c(C3CCCCC3)nc2n(CC=C)c1=O` [DAX], the ID50 in experiment [2] was 500 nM. Consider `CCCn1c(=O)c2[nH]c(C3CCCC3)nc2n(CCC)c1=O` [CPX, 1,3-Dipropyl-8-Cyclopentyl xanthine], for which, in experiment [2], the ID50 is 5000 nM.
